Assay results published in patent US7034035B2, “Fungicidal mono-, bi-, and tri-cycloheteroalkyl amides and their compositions, methods of use and preparation” (priority 1999, dated 2006).

System: Plasmopara viticola—PLASVI
Assay: whole plant or invertebrate
Settings: 24 h, read-out: PLASVI in vivo 1 Day Protectant

Compound	pest or weed control at 100 ppm [%]
COc1ccnc(C(=O)NC2CC(C)(C)C(OC(=O)c3ccccc3)C(C)(C)C2)c1O (centres unmarked) [Compound 268]	75 to 100
CC(C)C(=O)O[C@H]1[C@H](C)OC(=O)[C@@H](NC(=O)c2nsnc2O)COC(=O)[C@@H]1Cc1ccccc1 [Compound 553]	75 to 100
COc1ccnc(C(=O)NC2CC(C)(C)C(Cl)C(Cl)[C@H](C)[C@H]2C)c1O (some centres unmarked) [Compound 281]	75 to 100
COc1ccnc(C(=O)N[C@H]2COC(=O)[C@H](Cc3ccccc3)[C@@H](OC(=O)CC(C)C)[C@H](C)OC2=O)c1O [Compound 390]	< 25
C=C(C)C(=O)O[C@H]1[C@H](C)OC(=O)[C@@H](NC(=O)c2nccc(OC)c2O)COC(=O)[C@@H]1Cc1ccccc1 [Compound 386]	75 to 100
COc1ccnc(C(=O)N[C@@H]2CC3CC2[C@@H](c2ccccc2)[C@@H]3C(=O)OC(C)C)c1O (some centres unmarked) [Compound 300]	75 to 100
COc1ccnc(C(=O)NC2CC(C)(C)C(OC(=O)CC(C)C)C(C)(C)C2)c1O (centres unmarked) [Compound 267]	75 to 100
COc1ccnc(C(=O)NC2CC(C)(C)C(OC(=O)c3cccc(Cl)n3)C(C)(C)C2)c1O (centres unmarked) [Compound 269]	75 to 100
Cc1ccnc(C(=O)NC2C(=O)OC(=O)[C@H](Cc3ccccc3)[C@@H](OC(=O)C(C)C)[C@H](C)OC2=O)c1O (some centres unmarked) [Compound 237]	< 25
CC(C)C(=O)O[C@H]1[C@H](C)OC(=O)[C@@H](NC(=O)c2nccnc2O)COC(=O)[C@@H]1Cc1ccccc1 [Compound 534]	75 to 100
COc1ccnc(C(=O)N[C@@H]2CC3CC2C2C(=O)N(CC(C)C)C(=O)C32)c1O (some centres unmarked) [Compound 303]	75 to 100
Cn1cc(C(=O)NC2CC(C)(C)CC(C)(C)C2)c(O)n1 [Compound 557]	75 to 100
CC(C)C(=O)O[C@H]1[C@H](C)OC(=O)[C@@H](NC(=O)c2cccnc2O)COC(=O)[C@@H]1Cc1ccccc1 [Compound 523]	25 to 74
CC1(C)CC(NC(=O)c2nsnc2O)CC(C)(C)C1 [Compound 552]	75 to 100
COc1ccnc(C(=O)N[C@@H]2CC3CC2[C@@H](C(=O)OC(C)C)C3)c1O (some centres unmarked) [Compound 298]	25 to 74
CCC(C)C(=O)O[C@H]1[C@H](C)OC(=O)[C@@H](NC(=O)c2nccc(OC)c2O)COC(=O)[C@@H]1Cc1ccccc1 (some centres unmarked) [Compound 389]	< 25
CC(C)C(=O)O[C@H]1[C@H](C)OC(=O)[C@@H](NC(=O)c2cn(C)nc2O)COC(=O)[C@@H]1Cc1ccccc1 [Compound 558]	75 to 100
CC1(C)CC(NC(=O)c2ccnnc2O)CC(C)(C)C1 [Compound 539]	< 25
CC(C)C(=O)O[C@H]1[C@H](C)OC(=O)[C@@H](NC(=O)c2nscc2O)COC(=O)[C@@H]1Cc1ccccc1 [Compound 550]	75 to 100
COc1ccnc(C(=O)N[C@@H]2CC3CC2c2ccccc23)c1O (some centres unmarked) [Compound 290]	75 to 100
COc1ccnc(C(=O)NCC#Cc2ccccc2)c1O [Compound 240]	75 to 100
COC(=O)C(COC(=O)C(CO[Si](C)(C)C(C)(C)C)Cc1ccccc1)NC(=O)c1nccc(OC)c1O (centres unmarked) [Compound 350]	< 25
COc1ccnc(C(=O)NC2COC(=O)[C@H](Cc3ccccc3)[C@@H](OC(=O)C(C)C)[C@H](C)OC2=O)c1O (some centres unmarked) [Compound 475]	< 25

System: Plasmopara viticola—PLASVI
Assay: not given
Settings: grape, 100 ppm, 24 hour protectant; control of fungal infection vs untreated plants

Compound	PLASVI in vivo 1 Day Protectant
C[C@H]1C2CC([C@H]3CCC[C@@H]23)[C@@H]1NC(=O)c1ncccc1O (some centres unmarked) [Compound 207]	− (<25% control of fungal infection)
O=C(N[C@H]1CC2CC1[C@@H]1CCC[C@H]21)c1ncccc1O (some centres unmarked) [Compound 206]	− (<25% control of fungal infection)
N-(3-Hydroxy-4-Methoxy-2-Pyridylcarbonyl)-2-Amino-2-Deoxy-alpha-D-Glucopyranose [Compound 334]	− (<25% control of fungal infection)
